# Results taken from PubChem BioAssay AID662 (National Center for Advancing Translational Sciences (NCATS), 2007).
# Screen size: about 71,000 compounds; about 1,800 (2.5%) were called active. The inconclusive results got no clear call from the source; some entries with a clear call stand among them for comparison. Calls come from the whole dose curve; as a rule, active = well fitted activation curve with a large enough effect in the signal ratio, with a control signal flat (not every such curve was filed as active); inconclusive = small, poorly fitted or top-dose-only effect, or effect the other way, or a change in a side signal; inactive = flat fitted curve, though single readings scatter; the % refers to the signal ratio. Where the call is inconclusive, the potency comes from a doubtful curve fit.
# Assay: Cell signaling CRE-BLA (Fsk stim); for activity change, negative = inhibition: % of control where 0% means no effect
# Settings: CHO CRE-bla reporter (cAMP response element driving beta-lactamase), forskolin EC10, beta-lactamase ratio; activity change, negative = inhibition: at 38.2 µM (top of the series) unless noted
# Method in brief: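 qHTS titration format; CRE-bla CHO reporter; stimulus EC10 NKH 477, a water-soluble forskolin. Read: CCF4 460/530 nm ratio. Potency expressed as AC50 for activators or inhibitors.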
# Potency is the fitted concentration of half-maximal effect; tags give direction and shape of the fitted curve.
SMILES,"activity change, negative = inhibition",Potency
COc1ccccc1C(=O)NCCn1cc(SCC(=O)Nc2cc(C)on2)c2ccccc21,inconclusive: 6.56%,
CC(C)/C(=N/[N+](C)(C)C)c1ccccc1,inactive: 8.43% [at 7.6 µM],
Cc1cc(=O)[nH]c(SCc2nc3ncccn3c2Br)n1,,"inconclusive: 5.01 µM [falling, single point]"
COc1ccc(Nc2nnc(Cc3ccc(Cl)cc3)c(=O)[nH]2)c(OC)c1,inconclusive: 31.7%,
COC(=O)Cc1cc(=O)n(-c2nc3ccccc3[nH]2)[nH]1,inconclusive: -9.85%,
Cc1ccc(CN2CCSc3ccc(C(=O)N4CCN(c5ncccn5)CC4)cc32)cc1,inconclusive: 4.28%,
Nc1nc(OCc2ccccc2)c2[nH]cnc2n1,,"inconclusive: 31.6 µM [rising, single point]"
O=C(O)C1Nc2c(O)cccc2C2C=CCC12 (stereo not given),inconclusive: -26.2%,
CCOC(=O)CCC(=O)Nc1ccccc1C(N)=O,inconclusive: -0.705% [at 7.6 µM],
Cc1nc2c(sc3nc4c(cc32)COC(C)(C)C4)c(=O)n1CC(=O)NCc1ccco1,inactive: 8.37%,
CCC(OC(=O)CCc1nc2ccccc2[nH]c1=O)C(=O)c1ccccc1 (stereo not given),inactive: 12.6%,
CN=C1N[C@H](c2ccccc2)N(c2ccccc2)S1,,"inconclusive: 5.01 µM [rising, partial curve, poor fit]"
CSc1ccccc1C(=O)Nc1cccc(C(C)O)c1 (stereo not given),inconclusive: -20.9%,
COc1cccc(Cn2c(=O)c(-c3cc(F)cc(F)c3)nc3cncnc32)c1,,"inconclusive: 5.01 µM [rising, partial curve]"
O=C(CCS(=O)(=O)c1cccc2nonc12)NCCc1ccccc1,,"inconclusive: 12.6 µM [falling, single point]"
CCC(=O)NCCC(c1ccco1)c1ccccc1OC (stereo not given),inactive: 14.3%,
O=C(CC1Nc2ccccc2NC1=O)NCc1cccnc1 (stereo not given),,"inconclusive: 0.126 µM [falling, full curve, poor fit]"
O=c1c2ccccc2c(C=Nc2ccc(Cl)cn2)c(O)n1-c1cc(Cl)ccc1N1CCOCC1,inactive: 4.67%,
CCCn1c(=S)[nH]c2cc(C(=O)N3CCN(c4ccccc4OC)CC3)ccc2c1=O,inconclusive: 4.63%,
c1ccc2sc(SSc3nc4ccccc4s3)nc2c1,inactive: -1.12%,
Cn1c(=O)[nH]c(=O)c2c1nc(Sc1nc3ccccc3s1)n2Cc1ccccc1,inconclusive: 12.8%,
COc1nc(Nc2nc3ccccc3c(=O)[nH]2)nc2ccc(C)cc12,,active: 1.58 µM
COc1cc(C(=O)O)ccc1OC(C)=O,inactive: 3.26%,
CC(C)(C)CC(=O)N1CCC(c2nc3c(nnn3Cc3c(F)cccc3Cl)c(=O)[nH]2)CC1,,"inconclusive: 15.8 µM [rising, single point]"
CCOC(=O)CSC1=C(C#N)C(c2ccc(F)cc2)C(C(C)=O)=C(C)N1 (stereo not given),inactive: 7.29%,
COc1ccc(CC(=O)OCC(=O)Nc2c(C)n(C)n(-c3ccccc3)c2=O)cc1,inconclusive: -18.4%,
O=CNc1ncn[nH]1,inactive: 0.115% [at 7.6 µM],

SMILES,"activity change, negative = inhibition",Potency
C[C@@H](CCC[C@@H]1SC[C@H]2NC(=O)N[C@H]12)C(=O)O,inconclusive: 0.786% [at 7.6 µM],
CCCc1nc2ccccc2c(=O)n1NC(=O)c1c(O)c2cccc3c2n(c1=O)CCC3,inactive: 10.4%,
Cc1cc(-c2nc3ncccc3o2)ccc1N,inconclusive: 26.4%,
Cc1ccc(-c2csc3nnc(SCC(=O)Nc4nsc(-c5ccccc5)n4)n23)cc1,,"inconclusive: 5.01 µM [rising, partial curve]"
CC1Cc2nc(SCC(=O)OCc3ccccc3)n(C)c(=O)c2S1 (stereo not given),,"inconclusive: 10 µM [falling, single point]"
CCOCCCNC(=O)C1c2ccccc2C(=O)N2CCc3ccccc3C12 (stereo not given),,"inconclusive: 25.1 µM [rising, single point]"
O=C(O)CCC/C=C\C[C@H]1[C@@H](/C=C\[C@@H](O)C2Cc3ccccc3C2)[C@H](F)C[C@H]1O,inactive: -4.25%,
CCc1nnc(NCC(=O)N2CCc3ccccc32)s1,inconclusive: -8.55%,
N#Cc1cc2c(=O)n3ccccc3nc2n(Cc2cccnc2)c1=O,,active: 1 µM
O=C(Nc1cccc(F)c1)N1CCCC2(CCN(C(=O)c3ccncc3)CC2)C1,inconclusive: -6.68%,
Cn1c(=O)cc(OCC(=O)NCc2ccccn2)c2ccccc21,,"inconclusive: 7.94 µM [rising, partial curve]"
COc1cc2cc(CN(CCCO)S(=O)(=O)c3ccccc3)c(=O)[nH]c2cc1OC,inactive: 5.98%,
CCn1cc(C(=O)NCc2cccnc2)c2cc(OC)c(OC)cc2c1=O,,active: 5.01 µM
CCOc1ccc(NC(=O)CCNS(=O)(=O)c2ccc3c(c2)c(=O)n(C)c(=O)n3C)cc1,inconclusive: -12.9%,
CCCN(CCC)C(=O)[C@@H](CCC(=O)O)NC(=O)c1ccccc1,inactive,
CC(C)(C)NC1=CC(=O)OC12CCCCC2,inconclusive: 10% [at 7.6 µM],
COc1ccc(-c2nn(-c3ccccc3)cc2C(=O)Nc2nc(CC(C)=O)ns2)cc1,,"inconclusive: 7.94 µM [rising, partial curve]"
C=CCN1C(=O)CSc2ccc(C(=O)OCC)cc21,,"inconclusive: 10 µM [rising, single point]"
CCCCN(C)C(=O)c1oc2ccc(S(=O)(=O)N3CCCCCC3)cc2c1C,inconclusive: 13.1%,
COc1ccc(C)cc1NC(=O)CN1CCN(S(=O)(=O)c2ccc(C(C)C)cc2)CC1,inconclusive: 27.4%,
Cc1cc(NC(=O)CSc2ccc(-c3nc4cc(C)c(C)cc4[nH]3)cn2)no1,inconclusive: 24.2%,
COc1ccc(-c2nnn(CC(=O)N(CC(=O)NC3CCCC3)c3cccc(C)c3)n2)cc1OC,,"inconclusive: 12.6 µM [rising, single point]"
Cc1nc2cc(N3CCOCC3)c(NC(=O)C3CC3)cc2c(=O)n1Cc1ccccc1,inconclusive: 29%,
COc1ccc(S(=O)(=O)N2CCCN(CC(=O)Nc3cc(NC(C)=O)ccc3OC)CC2)cc1,inconclusive: 14.2%,
N=C(N)SCCc1ccc(OCc2ccc([N+](=O)[O-])cc2)cc1,inconclusive: -20.7%,
COc1ccc(-n2c(SCC(=O)Nc3nccs3)nc3c(c2=O)SC(C)C3)cc1 (stereo not given),,"inconclusive: 12.6 µM [rising, single point]"
O=c1oc2c(CN3CCCCC3)c(O)ccc2cc1-c1nc2ccccc2[nH]1,,"inconclusive: 7.94 µM [rising, partial curve]"

SMILES,"activity change, negative = inhibition",Potency
COc1cccc(-c2cncnc2NCc2cccc(C)c2)c1,inactive: 1.69%,
CCC(=O)N1CCCc2cc(S(=O)(=O)N3CCN(c4ccccc4F)CC3)ccc21,inconclusive: -25.4%,
CCCn1c(SCC(=O)Nc2nc3c(s2)CCCC3)nc2c1c(=O)n(C)c(=O)n2C,,"inconclusive: 10 µM [rising, partial curve]"
CCOC(=O)c1cn(CC)c2cc(N3CCCCC3)c(F)cc2c1=O,inconclusive: 16.3%,
COc1ccc(-c2ocnc2C(=O)Nc2ccccc2N2CCCCC2)cc1,,"inconclusive: 6.31 µM [rising, partial curve]"
COC(=O)Nc1nc2ccc(C(=O)c3ccccc3)cc2[nH]1,,active: 10 µM
CC(CC(=O)NC1CCSC1=O)c1ccccc1 (stereo not given),inconclusive: -28.5% [at 7.6 µM],
COc1cc2c(cc1OC)-c1cc(N3CCCc4ccccc43)nc(=O)n1CC2,,active: 0.251 µM
CCN(CC)S(=O)(=O)c1ccc(Cl)c(C(=O)NCC2CCCO2)c1 (stereo not given),inconclusive: 1.63%,
O=C(CCCCCN1C(=O)c2ccccc2C1=O)Nc1ccc(S(=O)(=O)N2CCCCC2)cc1,,"inconclusive: 2.51 µM [falling, full curve, poor fit]"
COc1ccc(-n2c(=O)c(-c3cccs3)nc3cncnc32)cc1,,active: 3.16 µM
CCOC(=O)C1CCCN(CC(=O)NC2=Nc3ccccc3N=C(C)C2c2ccccc2)C1 (stereo not given),inactive: -9.36%,
N#CCCN(C(=O)CSc1ccc2c(c1)OCCO2)c1ccccc1,inconclusive: -15.2%,
Cc1cccc(NC(=O)CN2C(=O)COc3ccc(Cl)cc32)c1,inactive: -9.49%,
CCOc1ccc2[nH]c(C)c(CN(C)C)c(=O)c2c1,inconclusive: 18.6% [at 7.6 µM],
CCSC1=C(C#N)C(c2ccc(OC)c(OC)c2)CC(=O)N1 (stereo not given),inactive: 22%,
COc1ccc(NC(=O)c2ccco2)cc1NC(=O)c1cccc(OC(C)C)c1,,"inconclusive: 12.6 µM [rising, single point]"
CS(=O)(=O)N(Cc1nnc(-c2cccs2)o1)c1ccc(Cl)cc1F,inactive: -13.2%,
Cc1cc2nc(SCC(=O)Nc3nonc3C)c3c(c2cc1C)CCCC3,inconclusive: -13.3%,
CCOc1ccc(S(=O)(=O)n2nnc3ccccc32)cc1C,inactive: -5.2%,
Clc1cccc(Cl)c1-c1nnc2ccc(N3CCOCC3)nn12,,"inconclusive: 5.01 µM [rising, partial curve]"
COC(=O)[C@@]1(Cc2ccc(OC)cc2)[C@H]2c3cc(C(=O)N4CCCC4)n(CCSCCO)c3C[C@H]2CN1C(=O)c1ccccc1,inconclusive: -16.9%,
Cn1c(=O)c2c(n(Cc3ccccc3)c1=O)NC(=O)C2CC(=O)N1CCc2ccccc2C1 (stereo not given),,"inconclusive: 10 µM [falling, single point]"
CCN1CCN(C(=O)CN(c2cc(OC)ccc2OC)S(C)(=O)=O)CC1,inconclusive: -17.3%,
Cc1ccc(C)n1-c1ccc2c(c1)COC2=O,inconclusive: -9.43%,
O=C(OCC(=O)N1CCN(C(=O)c2ccco2)CC1)c1sc2ccccc2c1Cl,inactive: -6.35%,
